Test results taken from PubChem BioAssay AID1030 (National Center for Advancing Translational Sciences (NCATS), 2008).
Screen size: about 220,000 compounds; about 16,000 (7.3%) were called active. Inconclusive means that the source gave no clear call. Such entries were picked first, then a sample of the others. The call rests on the fitted dose curve; in most records, active means well fitted inhibition curve with a large enough effect (not every such curve was filed as active); inconclusive means small, poorly fitted or top-dose-only effect, or another doubt; inactive means no such curve, though single readings can be large or run the other way. No potency is given beside an inconclusive call; the fits are too rough.

What follows are compounds tested against Aldehyde dehydrogenase 1A1 (Homo sapiens) (UniProt P00352) (assay: qHTS Assay for Inhibitors of Aldehyde Dehydrogenase 1 (ALDH1A1)). Conditions: Purified ALDH1A1, NADH fluorescence, propionaldehyde substrate; series mostly up to 75.3 µM.
Potency means the concentration at half of the fitted maximal effect; tags describe the fitted curve by direction and shape.

Chain of UniProt P00352 (P00352 whole entry, looked up): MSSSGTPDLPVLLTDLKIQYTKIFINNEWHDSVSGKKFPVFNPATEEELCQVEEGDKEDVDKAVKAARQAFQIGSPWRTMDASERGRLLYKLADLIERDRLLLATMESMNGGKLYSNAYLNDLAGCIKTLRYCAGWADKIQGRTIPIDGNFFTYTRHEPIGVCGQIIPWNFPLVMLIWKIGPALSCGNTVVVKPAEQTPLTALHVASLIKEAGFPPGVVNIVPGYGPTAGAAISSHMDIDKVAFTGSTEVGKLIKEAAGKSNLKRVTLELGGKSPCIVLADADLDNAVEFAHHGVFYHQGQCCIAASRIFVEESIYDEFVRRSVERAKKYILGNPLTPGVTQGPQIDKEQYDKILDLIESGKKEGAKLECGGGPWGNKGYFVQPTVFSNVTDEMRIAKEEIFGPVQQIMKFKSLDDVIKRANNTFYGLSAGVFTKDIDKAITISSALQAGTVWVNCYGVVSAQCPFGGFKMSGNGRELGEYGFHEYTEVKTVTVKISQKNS

Compound	Potency
Cc1ccc(N=CC2=C(O)CC(C)(C)CC2=O)nc1	inconclusive [inhibitor, partial curve]
COc1ccc(CNC(=O)CN(Cc2ccccc2)S(=O)(=O)c2ccc(Cl)cc2)cc1	inconclusive [inhibitor, full curve]
CSC1=NCCN1C(=O)c1ccc(Br)o1	inconclusive [inhibitor, single point]
COc1ccccc1-c1nccc(N2CCN(C)CC2)n1	inconclusive [inhibitor, single point]
COc1ccc(CCNC(=O)c2ccc(Cl)cc2)cc1OC	inactive
CC1=C(C)C(=O)N(c2ccc(C(=O)O)cc2)C1=O	inactive
CCc1ccc(NC(=O)COC(=O)/C=C/c2c(C)nn(C3CCS(=O)(=O)C3)c2Cl)cc1 (configuration not stated)	inconclusive [inhibitor, single point]
CCOC(=O)C1=C(O)C(=O)N(Cc2cccnc2)C1c1ccc(OC)cc1 (configuration not stated)	inconclusive [inhibitor, single point]
Cc1ccc(N(C)C)cc1	inconclusive [inhibitor, single point]
CCOC(=O)c1csc(NC(=O)c2ccc(S(=O)(=O)N3CCCC3)cc2)n1	inconclusive [inhibitor, partial curve]
CCOC(=O)c1ccc2c(c1)nc(SCc1cn3ccsc3n1)n2CC	inconclusive [inhibitor, single point]
CCCN1C[C@H](CSC)C[C@@H]2c3cccc4[nH]cc(c34)C[C@H]21	inactive
COc1cc(SC)ccc1C(=O)Nc1ncc(C)s1	inconclusive [inhibitor, single point]
O=C(Cn1nc(C(F)F)cc1C(F)F)NNC(=S)Nc1ccc([N+](=O)[O-])cc1	active: 17.8 µM
Cc1cc(C)n(C(=O)c2cc3c(s2)CCCC3)n1	active: 20 µM
CCc1c(C#N)c(SCCC(=O)Nc2ccc(C)cc2)nc2c1C(=O)CC(C)(C)C2	inconclusive [inhibitor, full curve]
Cn1c(N)c(C(=O)COC(=O)C23CC4CC(CC(C4)C2)C3)c(=O)n(C)c1=O	inconclusive [inhibitor, partial curve]
COC(=O)c1ccc(C(=O)OC)c(NC(=O)COC(=O)c2ccccc2OC)c1	inconclusive [inhibitor, partial curve]
CN1C(=S)SC(N2OC3C(=O)N(c4ccccc4)C(=O)C3C2c2ccc(Cl)cc2)C1(C)C (configuration not stated)	inactive
CN(CCOc1cccc(C(F)(F)F)c1)Cc1ccccc1	inconclusive [inhibitor, single point]
COc1cccc(CSc2nc3sc(C)c(C)c3c(=O)n2Cc2ccco2)c1	inconclusive [inhibitor, single point]
CC(=O)C1=NN(c2ccccc2)C(c2ccc3c(c2)OCO3)N1c1ccc(N2CCOCC2)cc1 (configuration not stated)	inconclusive [inhibitor, single point]
Cc1nc(N)nc(-c2ccccc2O)n1	inconclusive [inhibitor, single point]
O=C(CSc1ccc2nnc(-c3ccc(F)cc3)n2n1)NCC1CCCO1 (configuration not stated)	inconclusive [inhibitor, single point]

Compound	Potency
CCCCCC(=O)NC(=S)Nc1ccc(Cl)cn1	inactive
Cc1ccc(NC2Sc3ccccc3NC2=O)cc1 (configuration not stated)	active: 25.1 µM
COc1ccc(-n2c(O)c(C=NCC(c3ccco3)N3CCCC3)c3ccccc3c2=O)cc1OC (configuration not stated)	inactive
Cc1cccc2sc(NC(=O)C3CCCN(S(=O)(=O)c4cccc5nonc45)C3)nc12 (configuration not stated)	inactive
CO/N=C/c1ccc(N2CCN(C(=O)c3ccc(F)cc3)CC2)c([N+](=O)[O-])c1	inactive
CCCCCOC(=O)Cn1c(SCC(=O)Nc2ccccc2)nc2c1c(=O)[nH]c(=O)n2C	inconclusive [inhibitor, single point]
Cc1cc(C)nc(-n2ncc3c2CC(c2ccc(C(C)C)cc2)CC3=O)n1 (configuration not stated)	inconclusive [inhibitor, single point]
Cc1ccc(NC(=O)COC(=O)CN2C(=O)COc3ccccc32)cc1	inactive
C=C1CC23C[C@H]4[C@@H]5[C@@]6(C)C[C@H](OC(=O)c7ccccc7)[C@@H](OC(C)=O)[C@]57[C@@H]2[C@@H](OC(C)=O)[C@H]1[C@@H](O)[C@H]3[C@H]7N4C6	inactive
COCCNC(=O)Cn1cc(C(=O)c2ccco2)c2ccccc21	inactive
O=C(CSc1nc2ccc(Cl)cc2[nH]1)NCc1ccco1	inactive
COc1ccc(Cn2nnnc2C(C(C)C)N2CCN(c3ccccc3OC)CC2)cc1 (configuration not stated)	active: 17.8 µM
Cc1ccc(C)c(NC(=O)c2ccccc2C(=O)c2ccccc2)c1	inactive
CCCn1c(CC)nc([N+](=O)[O-])c1Sc1ccc(C)cc1	inconclusive [inhibitor, partial curve]
Cn1nc(C(=O)OCC(=O)Nc2sccc2C(N)=O)c2ccccc2c1=O	inactive
CC(=O)C1=NN(c2ccccc2)C(c2cccs2)N1c1ccc(N(C)C)cc1 (configuration not stated)	inconclusive [inhibitor, single point]
N#Cc1ccccc1NC(=O)C1SC(=Nc2ccccc2)C(C(=O)Nc2ccc(Cl)cc2)=C1N (configuration not stated)	inconclusive [inhibitor, partial curve]
COc1cccc(OC)c1C(=O)Nc1nnc(C(C)C)s1	active: 7.08 µM
CC(C)(C)C(=O)Cn1c(=N)n(Cc2ccccc2)c2ccccc21	inactive
O=C(CS(=O)(=O)c1ccc2ccccc2c1)N1CCCCCC1	inconclusive [inhibitor, single point]
COc1ccc2nc(C)cc(SCC(=O)OC(C)C)c2c1	inconclusive [inhibitor, partial curve, poor fit]
CCOC(=O)c1c(Cc2ccc(Cl)cc2)c[nH]c1C	inactive
Cc1nc2ccc(C(=O)N3CCN(c4ccccn4)CC3)cc2s1	inconclusive [inhibitor, single point]
